# Assay results: the supplement of paper PMC8183993
# Counter-ions that a name gives are not always drawn. ± gives the standard deviation of the averaged measurements. Over roughly 3,100 compounds, “mean cytoplasmic OPP incorporation (global translation) relative to DMSO” has its median near 100; the lowest 2% begin near 56. The list shows a part of the results.
# System: U2OS
# Assay: mean cytoplasmic OPP incorporation (global translation) relative to DMSO (% of DMSO); higher = more protein synthesis
# Conditions: 10 µM; 24 h
# Experimental: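 Primary image-based screen in U2OS cells: compounds at 10 uM for 24 h, then a 1 h o-propargyl-puromycin (OPP) pulse, click labelling, and high-throughput microscopy. Mean cytoplasmic OPP intensity and nuclei count were normalised to DMSO wells within each plate (DMSO = 100) and averaged over triplicate plates.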
row,Compound,mean cytoplasmic OPP incorporation
1,CSCCC(C=O)NC(=O)C(CC(C)C)NC(=O)[C@H](CC(C)C)NC(C)=O (some centres not stated) [Calpain Inhibitor II (ALLM)],109
2,CCCCC#Cc1nc(NC)c2ncn([C@@H]3O[C@H](CO)[C@@H](O)[C@H]3O)c2n1,95
3,Cn1cnc(N)c2ncnc1-2 [3-Methyladenine (3-MA)],101
4,Cn1cnc(N)c2ncnc1-2 [3-Methyladenine],121
5,CCN(CC)C(=O)N1CCN(C)CC1 [Diethylcarbamazine citrate],93.9
6,O=C(O)c1cc(O)c(O)c(O)c1 [Gallic acid],101
7,O=P(O)(O)C(O)(Cc1cccnc1)P(=O)(O)O [Risedronate sodium],99.2
8,O=P(O)(O)C(O)(Cc1cccnc1)P(=O)(O)O [Risedronic acid (Actonel)],104
9,CCN(CCCc1ccccc1)CCCc1ccccc1 [Alverine citrate salt],92.5
10,COc1cc2c(cc1OC)CN(CCc1ccc(NC(=O)c3cccc4c(=O)c5cccc(OC)c5[nH]c34)cc1)CC2 [Elacridar],112
11,CCn1c(-c2nonc2N)nc2cnc(Oc3cccc(NC(=O)c4ccc(OCCN5CCOCC5)cc4)c3)cc21,119
12,CC[C@]1(O)C[C@@H]2CN(CCc3c([nH]c4ccccc34)[C@@](C(=O)OC)(c3cc4c(cc3OC)N(C)[C@H]3[C@@](O)(C(=O)OC)[C@H](OC(C)=O)[C@]5(CC)C=CCN6CC[C@]43[C@@H]65)C2)C1 [Vinblastine sulfate],119
13,CC[C@]1(O)C[C@@H]2CN(CCc3c([nH]c4ccccc34)[C@@](C(=O)OC)(c3cc4c(cc3OC)N(C)[C@H]3[C@@](O)(C(=O)OC)[C@H](OC(C)=O)[C@]5(CC)C=CCN6CC[C@]43[C@@H]65)C2)C1 [Vinblastine],116
14,Nc1cc(N2CCCCC2)nc(N)[n+]1OS(=O)(=O)[O-] [Minoxidil sulfate],96.9
15,Cc1cc(CS(=O)(=O)c2ccccc2)cc(OCc2ccc(CN3CCC[C@@H]3CO)cc2)c1,129
16,Clc1ccc(COC(Cn2ccnc2)c2ccc(Cl)cc2Cl)cc1 (configuration not stated) [Econazole nitrate],101
17,C[C@H](CCC(=O)NCC(=O)O)[C@H]1CC[C@H]2[C@@H]3[C@H](O)C[C@@H]4C[C@H](O)CC[C@]4(C)[C@H]3C[C@H](O)[C@]12C [Glycocholic acid],102
18,Clc1ccccc1C(c1ccccc1)(c1ccccc1)n1ccnc1 [Clotrimazole],98.1
19,O=S(=O)(O)CCSSCCS(=O)(=O)O [Dimesna],99.8
20,CO[C@H]1C(=O)[C@]2(C)[C@@H](OC)C[C@H]3OC[C@@]3(OC(C)=O)[C@H]2[C@H](OC(=O)c2ccccc2)[C@]2(O)C[C@H](OC(=O)[C@H](O)[C@@H](NC(=O)OC(C)(C)C)c3ccccc3)C(C)=C1C2(C)C [Cabazitaxel (Jevtana)],109
21,CCCC(C(=O)OCCN(CC)CC)(c1ccccc1)c1ccccc1 [Proadifen hydrochloride],109
22,C=CC[N@@+]12CC[C@@]34c5ccccc5N5/C=C6/[C@H]7C[C@H]8[C@@]9(CC[N@@+]8(CC=C)C/C7=C/CO)c7ccccc7N(/C=C(/[C@@H](C[C@@H]31)/C(=C\CO)C2)[C@H]54)[C@@H]69 [Alcuronium chloride],99.6
23,Cc1onc(-c2ccccc2)c1C(=O)N[C@@H]1C(=O)N2[C@@H]1SC(C)(C)[C@@H]2C(=O)O [Oxacillin sodium monohydrate],100
24,Cc1onc(-c2ccccc2)c1C(=O)N[C@@H]1C(=O)N2[C@@H]1SC(C)(C)[C@@H]2C(=O)O [Oxacillin sodium],99.4

row,Compound,mean cytoplasmic OPP incorporation
1,CN(C)[C@@H](CCOc1cccc2ccccc12)c1ccccc1 [Dapoxetine HCl (Priligy)],113
2,CCCC(CCC)C(=O)O [Sodium Valproate],112
3,CCCC(CCC)C(=O)O [Valproic acid],114 ± 3.2
4,CCCC(CCC)C(=O)O [Sodium valproate],101
5,CN(C)CCCC1(c2ccc(F)cc2)OCc2cc(C#N)ccc21 (configuration not stated) [Citalopram hydrobromide],97.7
6,CN(C)CCCC1(c2ccc(F)cc2)OCc2cc(C#N)ccc21 (configuration not stated) [Citalopram Hydrobromide],104
7,CC[C@H](Nc1ncnc2[nH]cnc12)c1nc2cccc(F)c2c(=O)n1-c1ccccc1,93.3
8,CCOC(=O)C1=CN(Cc2ccccc2)C=C(C(=O)OCC)C1c1ccccc1,99.2
9,O=C(NC1CCNCC1)c1n[nH]cc1NC(=O)c1c(Cl)cccc1Cl,56.5
10,CC(C)c1noc(N2CCC(COc3ccc(-c4ccc(S(C)(=O)=O)cc4)nc3)CC2)n1,108
11,O[C@@H](COc1cccc2ncccc12)CN1CCN(C2c3ccccc3[C@@H]3[C@H](c4ccccc42)C3(F)F)CC1 (some centres not stated),111
12,"C[C@H](NC(=O)/C(C#N)=C/c1ccc(O)c(O)c1)c1ccccc1 [Tyrphostin B44, (+) enantiomer]",96
13,O=S(=O)(NCCNC/C=C/c1ccc(Br)cc1)c1cccc2cnccc12,109
14,O=S(=O)(NCCNC/C=C/c1ccc(Br)cc1)c1cccc2cnccc12 [H 89 dihydrochloride],102
15,CC(C)(C)c1cc(/C=C(\C#N)C(N)=S)cc(C(C)(C)C)c1O [Tyrphostin AG 879 (AG 879)],104
16,CCC(=O)NCC[C@@H]1CCc2ccc3c(c21)CCO3 [Ramelteon (TAK-375)],97.4
17,COC1=CC(=O)C[C@@H](C)[C@]12Oc1c(Cl)c(OC)cc(OC)c1C2=O [Griseofulvin],94.6
18,COc1cc(N)c(Cl)cc1C(=O)NC1CCN(CCCOc2ccc(F)cc2)CC1OC (configuration not stated) [Cisapride],117
19,CN(C)CCC(c1ccc(Cl)cc1)c1ccccn1 (configuration not stated) [Chlorpheniramine maleate],93.9
20,CCN(CC)CCCCC1CCN(CC(=O)N2c3ccccc3C(=O)Nc3cccnc32)CC1,99.3
21,COc1ccccc1N1CCN(CCN2C(=O)CC3(CCCC3)CC2=O)CC1 [BMY 7378 dihydrochloride],100
22,COC1=C(OC)C(=O)C(C/C=C(\C)CC/C=C(\C)CC/C=C(\C)CC/C=C(\C)CC/C=C(\C)CC/C=C(\C)CC/C=C(\C)CC/C=C(\C)CC/C=C(\C)CCC=C(C)C)=C(C)C1=O [Coenzyme Q10 (CoQ10)],114
23,O=C(O)c1ccccc1Nc1cccc(OCc2ccc3ccccc3n2)c1 [SR 2640 hydrochloride],100
24,CC(=O)NCCc1c(Cc2ccccc2)[nH]c2ccccc12 [Luzindole],103

row,Compound,mean cytoplasmic OPP incorporation
1,O=C(O[C@@H]1C[C@@H]2C[C@H]3C[C@H](C1)N2CC3=O)c1c[nH]c2ccccc12 [Dolasetron mesilate],100
2,O=C(Nc1ccc(C(F)(F)F)cn1)N1CCN(c2ncccc2C(F)(F)F)CC1,89.9
3,COC(=O)Nc1nc2cc(C(=O)c3ccc(F)cc3)ccc2[nH]1 [Flubendazol],80.3
4,COC(=O)Nc1nc2cc(C(=O)c3ccc(F)cc3)ccc2[nH]1 [Flubendazole (Flutelmium)],87.3
5,Cn1c(=O)c2c(ncn2C)n(C)c1=O [Caffeine],98.3 ± 2.4
6,CC[C@@H]1C(=O)N(C)c2cnc(Nc3ccc(C(=O)NC4CCN(C)CC4)cc3OC)nc2N1C1CCCC1,110
7,O=C1CCc2c(ccc3ccccc23)O1 [Splitomicin],104 ± 1.3
8,O=C1c2ccccc2C(Cc2ccncc2)(Cc2ccncc2)c2ccccc21 [XE 991 dihydrochloride],106
9,Cc1c(OCC(F)(F)F)ccnc1C[S+]([O-])c1nc2ccccc2[nH]1 (configuration not stated) [Lansoprazole],97.52 ± 0.96
10,C#CCN(C)CC1=Cc2ccccc2Oc2ccccc21,102
11,CC(C)(C)NCC(O)c1ccc(O)c(CO)c1 (configuration not stated) [Salbutamol],101
12,CCCCC[C@H](O)CC(=O)CCc1ccc(O)c(OC)c1 [Gingerol],102
13,CO[C@H]1C[C@@H]2CC[C@@H](C)[C@@](O)(O2)C(=O)C(=O)N2CCCC[C@H]2C(=O)O[C@H]([C@H](C)C[C@@H]2CC[C@@H](OP(C)(C)=O)[C@H](OC)C2)CC(=O)[C@H](C)/C=C(\C)[C@@H](O)[C@@H](OC)C(=O)[C@H](C)C[C@H](C)/C=C/C=C/C=C/1C [Deforolimus (Ridaforolimus)],89.2
14,CCn1c(=O)n(C2=C(CO)CN(CC3CCCCCCC3)CC2)c2ccccc21,108
15,O=C(Nc1cccc(Cl)c1)Nc1ncc(CCNc2ncnc3ccsc23)s1 [SNS-314 Mesylate],122
16,Nc1ncnc2c1c(-c1cccc(OCc3ccccc3)c1)cn2C1CC(CN2CCCC2)C1 (configuration not stated),123
17,CNC(=O)CN1CCC(Oc2cc3c(Nc4cccc(Cl)c4F)ncnc3cc2OC)CC1,112
18,CCCS(=O)(=O)Nc1ccc(F)c(C(=O)c2c[nH]c3ncc(Cl)cc23)c1F,106
19,CCN1CCCC1CNC(=O)c1cc(S(=O)(=O)CC)c(N)cc1OC (configuration not stated) [Amisulpride],98.7 ± 6
20,Nc1nc(N)nc(-c2cc(Cl)ccc2Cl)n1 [Irsogladine maleate],100 ± 4
21,COc1cc(N)c(Cl)cc1C(=O)NC1CCN(Cc2ccccc2)CC1 [Clebopride maleate],108
22,C[C@@H](O)[C@H]1C(=O)N2C(C(=O)OCOC(=O)C(C)(C)C)=C(SC3CN(C4=NCCS4)C3)[C@H](C)[C@H]12 [Tebipenem pivoxil (L-084)],98.1
23,CCCCOc1ccc(OCCCN2CCOCC2)cc1 [Pramoxine hydrochloride],97.3
24,O=C(NCC1CCCCN1)c1cc(OCC(F)(F)F)ccc1OCC(F)(F)F (configuration not stated) [Flecainide acetate],99.9 ± 2.5
